For 56 molecules, inhibition results are on record in PubChem BioAssay AID1986 (Sanford-Burnham Center for Chemical Genomics, 2009).

The other results are listed elsewhere or left out. Further columns of the screen follow, without active or inactive calls.

This assay is described as follows: inhibitors of HIV fusion peptide binding, primary screen, biochemical, uHTS, fluorescence dequenching (AID 1986). The note with it: cell-free peptide binding, 30 min, measured here: repeat confirmation average inhibition, at 18.6 µM, stronger effect = higher value.
By inhibition is commonly meant the drop in the measured response relative to a control, in per cent. `O=C(O)c1cc(-c2ccc(-c3c(-c4ccc5c(c4)OCO5)noc3-c3ccsc3)cc2)nc2ccccc12`: the inhibition was 73.7%. For `O=C(Nc1cccc(C(F)(F)F)c1)c1cccc(NS(=O)(=O)c2ccc(O)c(C(=O)O)c2)c1`, the inhibition is 83.6%. Turning to `COc1cc([N+](=O)[O-])cc(/C=C2/SC(=S)N(Cc3ccccc3)C2=O)c1O`, the inhibition was 52.3%. Then `COc1cc(/C=C2\SC(=O)N(Cc3ccc(Cl)cc3)C2=O)cc([N+](=O)[O-])c1O`, with 72%; and `COc1ccc(S(=O)(=O)Nc2ccccc2C(=O)Nc2nc(-c3ccc(F)cc3)cs2)cc1OC`, with 59.3%; and `O=C(O)/C=C/C(=O)Nc1ccc(C2(c3ccc(NC(=O)/C=C/C(=O)O)cc3)c3ccccc3-c3ccccc32)cc1`, with 69.4%. The same measure for `CC(C)CS(=O)(=O)C1=NN2C(=N)/C(=C\c3ccc(OC(=O)c4ccco4)cc3)C(=O)N=C2S1`: 68.7%. The same measure for `CCOc1cc(/C=N/N=C2/NC(=O)C(CC(=O)O)S2)ccc1OCc1ccc(Cl)cc1Cl` (stereo unspecified): 69%; for `CCC(Sc1nc2ccsc2c(=O)n1Cc1ccc(C(=O)O)cc1)C(=O)Nc1ccc(C)c(Cl)c1` (stereo unspecified): 63.7%; for `CCCCCc1c2c(cc(O)c1C(=O)O)OC(=O)c1c(cc(OC)cc1C(=O)CCCC)O2`: 76.2%. `Cc1ccc2nc(N3C(=O)C(O)=C(C(=O)c4ccco4)C3c3cccc(O)c3)sc2c1` (stereo unspecified): the inhibition is 61.4%. The same measure for `CCOc1cc(/C=C2/C(=N)N3C(=NC2=O)SN=C3S(=O)(=O)C(C)C)ccc1OC(=O)c1ccco1`: 67.2%; for `C/C(=C/CCC(C)C1CCC2(C)C3CCC4C(C)(C)C(=O)CCC4(C)C3=CCC12C)C(=O)O` (stereo unspecified): 63.8%; for `O=C(N/N=C/c1cc(Br)c(O)c(Br)c1)c1cc2c(ccc3ccccc32)o1`: 74.1%.

On to `O=C(CCN1C(=O)/C(=C/c2cccs2)SC1=S)Nc1ccc(C(=O)O)c(O)c1`, for which the inhibition stood at 70.2%. Then `CC(C)S(=O)(=O)C1=NSC2=NC(=O)/C(=C\c3ccc(-c4ccccc4)o3)C(=N)N21`, with 94%; and `O=C(Nc1cc(C(=O)Nc2ccccc2C(=O)O)cc(C(=O)Nc2ccccc2C(=O)O)c1)c1ccccc1`, with 82.6%; and `COc1ccc(NS(=O)(=O)c2ccc3c(c2)[C@H]2C=CC[C@H]2[C@@H](c2ccc(C(=O)O)cc2)N3)cc1`, with 69.3%. Then `CCc1nnc(NS(=O)(=O)c2ccc(NC(=O)/C=C/c3ccccc3Cl)cc2)s1`, with 54.5%. For `CCCCCCCCCCCCCCCCn1cc[n+](CC(C)=O)c1`, the inhibition amounted to 91.1%. On to `O=C(Nc1ccc(Oc2ccc(Cl)cc2)c(Cl)c1)c1cc(I)cc(I)c1O`, for which the inhibition turned out to be 76.8%. Then `CSc1nc(SCC(=O)O)c2sc3nc(-c4ccccc4)c4c(c3c2n1)CCC4`, with 69.8%.

For the molecule `COc1cc(/C=C2\SC(=S)NC2=O)ccc1OS(=O)(=O)c1ccccc1`, the inhibition came to 66.5%. In the case of `COc1cc(Cl)cc(C(c2c(C(=O)O)[nH]c3ccccc23)c2c(C(=O)O)[nH]c3ccccc23)c1O`, the inhibition stood at 84.3%. The same measure for `O=C(O)CCCN1C(=O)/C(=C/c2ccc(-c3nc4ccccc4s3)o2)SC1=S`: 60.4%; for `O=C(CN1C(=O)S/C(=C\c2cccs2)C1=O)Nc1ccc(C(=O)O)c(O)c1`: 50%. Then `O=c1cc(-c2ccccc2)nc2c(-c3ccccc3)c(C(F)(F)F)[nH]n12`, with 70.4%. Turning to `COc1ccc(/C=C2/SC(=S)N(CC(=O)O)C2=O)cc1OCc1ccc(Cl)cc1`, the inhibition came out at 86.3%.

Take `O=C(O)c1cc(NN=C2c3ccccc3-c3ccccc32)ccc1Cl`: the inhibition was determined as 54.7%. As to `O=C(NN1C(=O)/C(=C\c2ccc(O)c([N+](=O)[O-])c2)SC1=S)c1ccccc1Cl`, the inhibition amounted to 53.8%. For the molecule `N=C1/C(=C/c2ccc(-c3cccc(C(=O)O)c3)o2)C(=O)N=C2SC=C(c3ccccc3)N12`, the inhibition is 85.2%. For `O=c1/c(=C\c2cc([N+](=O)[O-])cc([N+](=O)[O-])c2O)sc2nc3ccccc3n12`, the inhibition stood at 109%.

Take `O=C(O)CCCCCN1C(=O)/C(=C\c2cn(-c3ccccc3)nc2-c2cccs2)SC1=S`: the inhibition came to 68.7%. Consider `O=C(CSc1nc2ccccc2c(=O)n1Cc1ccccc1)Nc1ccc(Br)cc1C(=O)O`, for which the inhibition stood at 58.4%. As to `Cc1cc(/C=c2\sc3nc4ccccc4n3c2=O)c(C)n1-c1ccc(C(=O)O)cc1`, the inhibition is 63.3%.

Regarding `COc1ccc(-c2nn(-c3ccccc3)cc2/C=C2/SC(=S)N(CCC(=O)O)C2=O)c(C)c1`, the inhibition amounted to 67.1%. For `Cc1cc(C)c2nc(N3C(=O)C(O)=C(C(=O)c4ccco4)C3c3ccco3)sc2c1` (stereo unspecified), the inhibition turned out to be 80.5%.

In the case of `O=C(NCCc1ccccc1)c1ccc2c(=O)[nH]c3c(C(=O)NCC4CCCO4)sc(=S)n3c2c1` (stereo unspecified), the inhibition was determined as 57.5%. Then `CCS(=O)(=O)C1=NSC2=NC(=O)/C(=C\c3ccc(OS(=O)(=O)c4ccccc4)c(OC)c3)C(=N)N21`, with 75.3%. The same measure for `O=C(O)c1cccc(-n2cccc2/C=C2/NC(=O)N(c3ccc(Cl)cc3)C2=O)c1`: 63.4%. Then `CCOC(=O)c1sc(N2C(=O)C(O)=C(C(=O)c3ccco3)C2c2ccc([N+](=O)[O-])cc2)nc1C` (stereo unspecified), with 50%; and `C=CCOC(=O)C1=C(C)N=c2s/c(=C3\C(=O)N(CC(=O)O)c4ccccc43)c(=O)n2C1c1ccc(OC)cc1` (stereo unspecified), with 55.3%; and `CC(C)c1ccc(OCC(=O)Nc2cccc(C(=O)Nc3ccccc3C(=O)O)c2)cc1`, with 58.4%. For the molecule `Nc1c(S(=O)(=O)O)cc(NC(=O)c2ccccc2)c2c1C(=O)c1ccccc1C2=O`, the inhibition turned out to be 79.7%. For `O=[N+]([O-])c1cc(Cl)cc(/C=N/NC(=S)Nc2cc(S(=O)(=O)N3CCOCC3)ccc2Cl)c1O`, the inhibition came out at 76.1%. The same measure for `CC1=C(C#N)C(=O)NC(=O)/C1=C\c1ccc(-c2cc(C)c(C)cc2[N+](=O)[O-])o1`: 57.7%. The same measure for `O=C(O)CCN1C(=O)/C(=C2\C(=O)N(Cc3ccc(F)cc3)c3ccccc32)SC1=S`: 56%. The same measure for `O=C(O)c1[nH]c2ccccc2c1C(c1ccccc1)c1c(C(=O)O)[nH]c2ccccc12`: 73.4%. As to `O=C(O)CN1C(=O)/C(=C\c2cc(Br)ccc2OCc2ccccc2Cl)SC1=S`, the inhibition came out at 82.5%. The same measure for `O=C(CCN1C(=O)/C(=C\C=C\c2ccccc2)SC1=S)Nc1ccccc1C(=O)O`: 75.8%; for `COc1cc(C(c2c(C(=O)O)[nH]c3ccccc23)c2c(C(=O)O)[nH]c3ccccc23)ccc1OCc1ccccc1`: 86.3%; for `O=C(O)CN1C(=O)/C(=C\c2cccc(OCc3ccc(Cl)cc3)c2)SC1=S`: 64.5%. Then `COC(=O)c1sc(-c2ccc(C(C)(C)C)cc2)cc1NC(=O)CSCC(=O)O`, with 56.8%; and `CCc1nnc(NS(=O)(=O)c2ccc(NC(=S)NC(=O)/C=C/c3ccc(F)cc3)cc2)s1`, with 59.3%. Then `O=C(O)CN1C(=O)/C(=C\c2ccccc2OCc2ccc(Cl)cc2Cl)SC1=S`, with 69.3%; and `O=C(O)CN1C(=O)/C(=C\c2cc(Br)ccc2OCc2ccc(Cl)cc2)SC1=S`, with 67.1%.
